# Laboratory results: the supplement of paper PMC3334620
# The full ranking holds about 33,000 sequences; the median of “E-score (-0.5 to 0.5)” is about -0.032, and the highest 2% start at about 0.36. This is one part of the list.
# Biological target: T1, Sko1 (UniProt Q02100)
# T1 sequence: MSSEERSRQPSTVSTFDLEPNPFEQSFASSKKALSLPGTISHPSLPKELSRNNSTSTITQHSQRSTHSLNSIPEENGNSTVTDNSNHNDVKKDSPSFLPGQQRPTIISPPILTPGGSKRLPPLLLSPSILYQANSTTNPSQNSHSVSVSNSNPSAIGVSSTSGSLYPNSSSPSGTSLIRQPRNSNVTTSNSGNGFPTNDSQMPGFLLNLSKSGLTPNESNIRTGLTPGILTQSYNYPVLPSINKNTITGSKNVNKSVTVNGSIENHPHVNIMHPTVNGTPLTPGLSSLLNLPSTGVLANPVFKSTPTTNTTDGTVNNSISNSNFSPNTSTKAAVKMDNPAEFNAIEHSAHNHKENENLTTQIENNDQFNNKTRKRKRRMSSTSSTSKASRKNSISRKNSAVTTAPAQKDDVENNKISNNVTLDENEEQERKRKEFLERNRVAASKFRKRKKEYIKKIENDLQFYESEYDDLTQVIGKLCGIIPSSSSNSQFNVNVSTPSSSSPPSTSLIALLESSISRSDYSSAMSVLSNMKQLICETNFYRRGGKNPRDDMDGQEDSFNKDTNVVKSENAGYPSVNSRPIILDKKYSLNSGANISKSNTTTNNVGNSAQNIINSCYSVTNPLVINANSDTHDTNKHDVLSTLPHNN
# Assay: PBM E-score (8-mer binding enrichment) (E-score (-0.5 to 0.5)); higher = stronger / more preferred TF binding; most listed sequences are background and not binding sites
# Settings: protein concentration: 200 nM; construct: GST-full length
# Outline: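 Masliner-normalised scans of fluorescent anti-GST signal were the basis for scoring. That signal came from GST-tagged yeast transcription factors applied at about 100-200 nM to double-stranded universal all-10-mer Agilent arrays on fresh or once-stripped slides. Each ungapped eight-base word, pooled with its reverse complement, received an E-score from the Universal PBM Analysis Suite.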
row,Sequence,PBM E-score
1,AACTAGGG,-0.0575
2,ACAAAAAA,0.221
3,CTCGCCTA,-0.276
4,CACTGTCA,0.0185
5,CAGGAAAA,0.0768
6,CGCGAGAA,-0.118
7,AGCCTCAT,-0.194
8,ATCTCATC,0.0651
9,AAGGACTT,-0.275
10,CATGGTTA,0.143
11,CGAACCCA,-0.131
12,AAACTCTC,-0.0431
13,CTGTACGA,0.0985
14,AGTGTGAG,-0.0189
15,CGCCACCG,-0.141
16,CAAATCCA,-0.00817
17,ATTGGCGA,-0.0227
18,GTTTAGGA,-0.00127
19,AAGGGTCT,-0.179
20,ACCAGTAG,-0.246
21,CTTGGATA,-0.0507
22,AATCACCT,0.125
23,AGAGCGGA,-0.0828
24,AGCAGAGC,-0.184
25,AGGACGTC,0.363

row,Sequence,PBM E-score
1,CCTCTAAA,-0.149
2,AGCATCTC,-0.176
3,ACAATGCC,-0.113
4,GCCTTGCA,-0.133
5,ATAAAGGG,-0.176
6,GCACAAAA,0.0976
7,CTCGCAAA,-0.0485
8,GTCCCTAA,-0.221
9,GACTGTAC,-0.031
10,CACCATCG,-0.14
11,ACCCTCTC,-0.327
12,CCTGGGAA,-0.193
13,CCGATTCG,0.0836
14,ACGGTCAA,0.0587
15,ATAACCCG,-0.201
16,AACGATAA,0.026
17,CATTACGA,0.398
18,CGTCATCC,0.475
19,AAAGGATC,-0.0203
20,CCTGATCA,-0.141
21,AACGTTAG,0.176
22,GGGTACTA,-0.00254
23,CACTCCTA,0.0413
24,TCCGCACA,-0.111
25,CGTGGCGA,0.0528

row,Sequence,PBM E-score
1,ATAAAAAA,0.178
2,CTAAATTC,0.203
3,CGGTTCAC,-0.233
4,AAGACGTA,0.454
5,AAGCGGAT,-0.256
6,GACTAAGA,-0.00186
7,ATGAGGTA,0.335
8,ATCAGTTA,0.159
9,ACGATGAT,0.246
10,AGGTGGAT,-0.228
11,CTTTTCTA,-0.186
12,CTTCTAAA,0.0729
13,TAGACTGA,-0.0827
14,CGATCCAG,-0.0419
15,GTTCGGCA,-0.0573
16,ACTCACCA,0.0298
17,ACGCTGAG,-0.173
18,AAAATACC,0.146
19,AAGACCCC,-0.274
20,TAATGGAA,0.153
21,CGAATCAC,0.0177
22,AAGGAACC,-0.127
23,AAAAGTAT,0.189
24,GTGTTCTA,0.0982
25,ACGGCGTA,0.212

row,Sequence,PBM E-score
1,ATTTGAGA,0.0882
2,AGCAAGCT,-0.228
3,AATCAACC,-0.0815
4,AGAAGTGC,-0.24
5,AACCTCGA,-0.0258
6,CTAAGAGC,-0.148
7,AAGCCGAC,-0.319
8,AGGCCCAC,-0.287
9,AACTTGGA,-0.0527
10,ACTTCCGA,-0.111
11,CCACCTCC,-0.322
12,CGTTCAGC,0.00494
13,GAATACGC,0.3
14,ACCGTCAA,0.00527
15,AACCGCGA,0.169
16,AGGGCGAC,-0.2
17,GGGATGAC,0.197
18,TCACCGCA,-0.00518
19,CCAGCTGG,-0.225
20,CGTCATAG,0.483
21,GAACATAA,0.119
22,TCGGGTAA,-0.114
23,CGGCCTGC,-0.204
24,GCCTAAAC,-0.138
25,ATGGCCGA,-0.0453

row,Sequence,PBM E-score
1,GGCGGCAA,-0.257
2,GCGGAGAC,0.0155
3,AGCGCGTG,0.0652
4,AGTAGTGC,-0.202
5,CGGAAGCC,-0.209
6,AGTGGCGA,-0.126
7,GCAACATA,0.106
8,GTGTCTGA,-0.0146
9,GTGTCCTA,-0.0305
10,GCGAAGAA,-0.00349
11,ATTCCACG,0.0997
12,TGACACCA,0.0833
13,TCGAATAA,0.0835
14,CGCCCAAG,-0.294
15,CTCGGTCC,-0.158
16,CCAGACAC,-0.175
17,CATCGCCC,-0.0666
18,CTAAACTA,-0.0161
19,CGGTTACA,0.0784
20,CATTACCC,-0.0584
21,CGTGATAG,0.181
22,TGATTAAA,0.191
23,ACCGAGAT,-0.203
24,ACAGGCTA,-0.205
25,ATTTTAAG,0.165

row,Sequence,PBM E-score
1,CATTTTCG,0.164
2,AAGGGCGT,-0.151
3,AGGTAACG,-0.0561
4,CACTCTCG,0.108
5,GGATAGAA,-0.00286
6,CCTGCGAG,-0.15
7,GCTAGACA,-0.0062
8,GCCCTGCA,-0.302
9,CGGCTGTA,-0.14
10,AGACGTAA,0.447
11,AACCGAAG,0.00243
12,AAGATACC,-0.0424
13,CTCCTGAA,-0.0557
14,ATCCATTG,-0.0529
15,GGCATGGA,-0.134
16,CTGAATGC,-0.0683
17,AGCGCCAG,-0.198
18,ACTCAGGC,-0.117
19,CCTGTCAA,-0.0383
20,AGCACCCT,-0.356
21,GTTATGTA,0.17
22,TCCAGGGA,-0.168
23,CACACTCC,-0.0125
24,ACAGGGCG,-0.14
25,AGGAGCTG,-0.187

row,Sequence,PBM E-score
1,AAGGGCGA,-0.229
2,ATCCCGTG,0.0438
3,AACATATC,0.0715
4,GCTCGGGA,-0.176
5,CGGGAGAC,-0.136
6,GATACGTA,0.48
7,ATGTGTGA,0.08
8,ATCTTTCC,0.0653
9,AAGTAATC,0.132
10,AGTGAAAG,0.0502
11,CAAGGTCA,-0.144
12,ATTCTCGC,-0.177
13,CCATGCCA,-0.16
14,CAAACTAG,-0.182
15,ATGAACAT,0.108
16,CAGGATAG,-0.101
17,AGGTGCCC,-0.257
18,GAACAGTC,-0.191
19,ATCTTGGC,-0.119
20,AGAAAGAG,-0.257
21,CCCGTTTC,-0.349
22,TACGCATA,0.368
